Source: PubChem BioAssay AID686970 (National Center for Advancing Translational Sciences (NCATS), 2013)
The whole screen tested about 360,000 compounds, of which about 6,000 (1.7%) were called active. Inconclusive means that the source gave no clear call. Such entries were picked first, then a sample of the others. Calls come from the whole dose curve; as a rule, active = well fitted cell-killing curve with a large enough effect; inconclusive = small, poorly fitted or top-dose-only effect, or effect the other way; inactive = flat fitted curve, though single readings scatter. Potencies of inconclusive entries are left out as doubtful fits.

Experiment: qHTS for induction of synthetic lethality in tumor cells producing 2HG: qHTS for the HT-1080-NT fibrosarcoma cell line;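 note: NT is the 2HG producing partner of a matched IDH1 knockdown line; nearly all actives have a fitted effect of over 55% in size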;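 for activity, negative = less viability: 0% = DMSO-treated cells and -100% = media-only wells without cells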
Settings: HT-1080-NT fibrosarcoma viability, CellTiter-Glo ATP luminescence, 48 h; activity, negative = less viability: at 46.1 µM (top of the series)
Summary of the method: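 HT-1080-NT fibrosarcoma cells (2HG-overproducing), 750 cells/well in RPMI with 5% FBS, dosed after 2 h and incubated 48 h at 37C. CellTiter-Glo luminescence normalized to DMSO and no-cell wells; concentration-response curves fitted and classed.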
Potency is the fitted concentration of half-maximal effect; tags give direction and shape of the fitted curve.

SMILES	Potency	activity, negative = less viability
CC(=O)OC(C)(C)/C=C/C(=O)C(C)(O)C1C(O)CC2(C)C3CC=C4C(CC(O)C(=O)C4(C)C)C3(C)C(=O)CC12C (stereo not drawn)	active: 0.116 µM	–
C[C@@H]1O[C@@H](O[C@H]2C[C@@H](O)[C@]3(CO)[C@H]4[C@H](O)C[C@]5(C)[C@@H](C6COC(=O)C6)CC[C@]5(O)[C@@H]4CC[C@]3(O)C2)[C@H](O)[C@H](O)[C@H]1O (stereo partly drawn)	active: 1.84 µM	–
COC(=O)C1=C(c2ccc(OC(F)(F)F)cc2)C[C@@H]2CC[C@H]1N2C(=O)N1CCCC1	inconclusive [cytotoxic, single point]	–
CN1C2CCC1/C(=C/c1ccccn1)C(=O)/C2=C\c1ccccn1	active: 1.16 µM	–
CCN(CC)c1ccc(/C=N/c2sc3c(c2C#N)C2CCN3CC2)c(O)c1	inconclusive [cytotoxic, partial curve]	–
Cc1cc(NC(=O)CCl)no1	inconclusive [cytotoxic, single point]	–
Nc1ccc(C2(c3ccc(N)cc3)c3ccccc3-c3ccccc32)cc1	inconclusive [cytotoxic, partial curve]	–
CCOc1cc2c(cc1OCC)-n1cccc1C(c1ccc(OC(F)F)cc1)NC2 (stereo not drawn)	inconclusive [cytotoxic, single point]	–
Cc1ccc(NC(=O)c2snnc2C)cc1Cl	inactive	–
COc1ccccc1CCNC1CCCCCC1	inactive	–
c1cncc(CNC2CCCC2)c1	inactive	–
CC1N(C)c2cc(NC(=O)c3ccco3)c(P(=O)(Nc3ccc([N+](=O)[O-])cc3)N3CCOCC3)cc2C1(C)C (stereo not drawn)	inconclusive [cytotoxic, single point]	–
CCOC(=O)C1(CCc2ccccc2)CCN(Cc2ccco2)CC1	–	inconclusive: -30.1% [cytotoxic]
COc1ccc(N2C(=O)/C(=C/c3ccc(C)o3)C(=O)NC2=S)c(OC)c1	inactive	–
CCOP(=O)(OCC)C(O)c1cccnc1 (stereo not drawn)	inactive	–
c1cc2c(cc1CN1CCNCC1)OCO2	inactive	–
COC(=O)C(O)(c1ccc(NC(=S)NC(=O)c2ccc(Cl)cc2Cl)c(C)c1)C(F)(F)F (stereo not drawn)	inconclusive [cytotoxic, single point]	–
CC(=O)OC(C)(C)/C=C/C(=O)[C@](C)(O)[C@H]1[C@H](O)C[C@@]2(C)[C@@H]3CC=C4[C@H](C[C@H](O)C(=O)C4(C)C)[C@]3(C)C(=O)C[C@]12C	active: 0.082 µM	–
C=C1C(=O)O[C@@H]2C[C@@H](C)[C@@H]3C4OC4C(=O)[C@@]3(C)[C@@H](O)[C@H]12 (stereo partly drawn)	active: 14.6 µM	–
NC(Cc1ccc(Cl)cc1)c1csc(Nc2ncccn2)n1 (stereo not drawn)	active: 18.4 µM	–
CC(C)CC(N(C)C)C1(c2ccc(Cl)cc2)CCC1 (stereo not drawn)	inconclusive [cytotoxic, partial curve]	–
CCC(=NCC1CCCO1)c1c(O)n(Cc2ccccc2)c(=O)[nH]c1=O (stereo not drawn)	inactive	–
COc1cc2c(cc1O)[C@@H]1Cc3ccc(OC)c(O)c3CN1CC2	active: 2.59 µM	–

SMILES	Potency	activity, negative = less viability
CCC(C)C(=O)N[C@@H](c1ccccc1)[C@@H](O)C(=O)O[C@H]1C[C@@]2(O)[C@@H](OC(=O)c3ccccc3)C3[C@](C)(C(=O)[C@H](OC(C)=O)C(=C1C)C2(C)C)[C@@H](O)C[C@H]1OC[C@@]31OC(C)=O (stereo partly drawn)	active: 0.184 µM	–
COc1cc(C2c3cc4c(cc3CC3COC(=O)C32)OCO4)cc(OC)c1OC (stereo not drawn)	active: 0.366 µM	–
COc1cccc2c1C(=O)c1c(O)c3c(c(O)c1C2=O)CC(O)(C(C)=NO)CC3OC1CC(N)C(O)C(C)O1 (stereo not drawn)	inconclusive [cytotoxic, single point]	–
Nc1ncnc2c1ncn2[C@@H]1O[C@H](COP(=O)(O)CP(=O)(O)O)[C@@H](O)[C@H]1O	inconclusive [cytotoxic, single point]	–
C[C@@H]1CN([C@H](C)CO)C(=O)c2cc(NC(=O)Nc3ccc(C(F)(F)F)cc3)ccc2O[C@H]1CN(C)S(=O)(=O)c1cccs1	inconclusive [cytotoxic, single point]	–
O=[N+]([O-])/C=C/c1c(Cl)cccc1Cl	inconclusive [cytotoxic, single point]	–
CC/C(=N\Nc1ccccc1)c1c(O)n(-c2ccc(OC)cc2)c(=O)[nH]c1=O	inconclusive [cytotoxic, partial curve]	–
Cc1ccc(-n2c(O)c(/C=C/C=Nc3ccccc3)c(=O)[nH]c2=O)cc1	inactive	–
O=C1CC(N2CC=C(c3ccccc3)CC2)C(=O)N1c1ccc(F)cc1 (stereo not drawn)	inactive	–
CC12CC[C@H]3[C@@H](CCC4(O)C[C@H](O)CCC34/C=N/NC(=O)Cc3ccccc3)C1(O)CCC2C1=CC(=O)OC1 (stereo partly drawn)	inconclusive [cytotoxic, single point]	–
CCCNC(=O)N1[C@H]2CC[C@@H]1C(C(=O)OC)=C(c1cccc(Cl)c1)C2	inconclusive [rising, single point]	–
CSCCC(c1nnnn1-c1ccc2c(c1)OCCO2)N1CCC(n2c(=O)[nH]c3ccccc32)CC1 (stereo not drawn)	inconclusive [cytotoxic, single point]	–
Cc1ccccc1CCNCc1ccc(Br)cc1	inconclusive [cytotoxic, single point]	–
CC(C)c1ccc(N2C(=O)NC(=O)/C(=C\C=C\c3ccco3)C2=O)cc1	active: 4.11 µM	–
O=Cc1c(C(=O)O)n(Cc2ccccc2F)c2ccccc12	inconclusive [cytotoxic, full curve, poor fit]	–
C/C(=N\NP(=S)(c1ccccc1)c1ccccc1)c1ccc(O)cc1O	inconclusive [cytotoxic, single point]	–
Cc1ccccc1C(O)(Cc1ccccc1)C1CN2CCC1CC2 (stereo not drawn)	inconclusive [cytotoxic, single point]	–
CCCCC(CC)COP(=O)(OCC(CC)CCCC)OCC(CC)CCCC (stereo not drawn)	inconclusive [cytotoxic, partial curve, poor fit]	–
CSc1ccc(CNC(C)C(O)c2ccccc2)cc1 (stereo not drawn)	inconclusive [cytotoxic, partial curve]	–
OC1(c2ccc(Cl)cc2)CCN(Cc2c[nH]c3ccccc23)CC1	active: 18.4 µM	–
CN1CCC(N(C)c2nc(-c3ccc([N+](=O)[O-])cc3)nc3ccccc23)CC1	inconclusive [cytotoxic, single point]	–
NC(Cc1ccc(F)cc1)c1csc(Nc2ccccn2)n1 (stereo not drawn)	inconclusive [cytotoxic, single point]	–
COc1ccc2c(c1)[C@@]13CCC=C[C@H]1[C@@H](C2)NCC3	inconclusive [cytotoxic, partial curve, poor fit]	–

SMILES	Potency	activity, negative = less viability
CCc1nn(CC(=O)N2CCC3(CC2)OCCO3)c(=O)c2cccn12	inactive	–
O=C1NC2C(O)C(O)C(O)C(O)C2c2cc3c(c(O)c21)OCO3 (stereo not drawn)	active: 0.461 µM	–
CCC(C)c1ccc(N2C(=O)NC(=O)/C(=C/c3cccn3CCOc3ccc(C)cc3)C2=O)cc1 (stereo not drawn)	inconclusive [cytotoxic, single point]	–
Oc1ccc(Cl)cc1Sc1cc(Cl)ccc1O	active: 20.6 µM	–
Cc1ccc(OP2(=O)Nc3cc(C)c(C)cc3S2)cc1 (stereo not drawn)	inconclusive [cytotoxic, single point]	–
O=C(c1ccc2c3c(cccc13)CC2)C1CCCN(Cc2ncc[nH]2)C1 (stereo not drawn)	inconclusive [cytotoxic, partial curve]	–
Cc1ccc(N2CCN(C(=O)c3cn(CC4CCCCC4)nn3)C(C)C2)cc1 (stereo not drawn)	inconclusive [cytotoxic, single point]	–
C=CCn1c(O)c(C(CC)=NCc2cc(OC)cc(OC)c2)c(=O)[nH]c1=O	active: 23.1 µM	–
CCCC1(CCC)C(=O)NC(=NCc2ccccc2)NC1=O	active: 14.6 µM	–
CC[C@H]1CC2CN3CCc4c([nH]c5cc(OC)ccc45)[C@](C(=O)OC)(C2)[C@H]13	inactive	–
CC12CCC3C(CC=C4CC(O)CCC43C)C1C/C(=C\c1cccc(F)c1)C2=O (stereo not drawn)	inconclusive [cytotoxic, partial curve]	–
O=C(COc1ccc(Cl)cc1Cl)N1CCN(C/C=C/c2ccccc2)CC1	inconclusive [cytotoxic, single point]	–
O=C(NCCCN1CCCC1)c1ccc2c(c1)N(Cc1cccc(Cl)c1)C(=O)c1ccccc1S2=O (stereo not drawn)	active: 16.4 µM	–
Brc1ccc(Oc2cc(Br)c(Br)cc2Br)c(Br)c1	–	inconclusive: -32.4% [cytotoxic]
CC1OC(OC2CC(O)C3(CO)C4C(O)CC5(C)C(C6=CC(=O)OC6)CCC5(O)C4CCC3(O)C2)C(O)C(O)C1O (stereo not drawn)	active: 0.13 µM	–
CCOC(=O)C(=CNc1ccc(C(O)(C(=O)OCC)C(F)(F)F)cc1C)C(=O)OCC (stereo not drawn)	inactive	–
CN1C(=O)C(O)N=C(c2ccccc2)c2ccccc21 (stereo not drawn)	inactive	–
FC(F)(F)Oc1ccc(NC2=NCCCS2)cc1	inactive	–
CNCCc1ccc(O)c(O)c1	inconclusive [cytotoxic, single point]	–
COC[C@H]1OC(=O)c2coc3c2[C@@]1(C)C1=C(C3=O)[C@@H]2CCC(=O)[C@@]2(C)C[C@H]1OC(C)=O	inconclusive [cytotoxic, partial curve]	–
NC(=O)c1cccc(-c2cccc(OC(=O)NC3CCCCC3)c2)c1	inconclusive [rising, single point]	–
COc1cc(/C=C(/C)[N+](=O)[O-])ccc1OCc1ccccc1Cl	active: 8.2 µM	–
